Assay results: a compilation of properties of binary mixtures (doi:10.1007/s10953-013-9990-0)
The densities may have been worked out from excess volumes.

Assay: xn = mol fraction of the nth substance listed
Conditions: 101 kPa

CCCC[N+]1(C)CCCC1.O=S(=O)([N-]S(=O)(=O)C(F)(F)F)C(F)(F)F + CC(C)O
mass density [kg/m3]
Conditions | 298.15 K | 303.15 K | 308.15 K
x2 = 0 | 1394.5 | – | 1385.7
x2 = 0.0593 | 1384.7 | 1380.3 | 1375.9
x2 = 0.1319 | – | 1367.2 | 1362.8
x2 = 0.2344 | 1350.3 | 1345.8 | –
x2 = 0.3929 | 1308.3 | 1303.8 | 1299.3
x2 = 0.4935 | 1274 | 1269.4 | 1264.8
x2 = 0.5927 | 1230.6 | – | 1221.4
x2 = 0.718 | 1155.5 | 1150.9 | 1146.3
x2 = 0.8015 | 1086.3 | 1081.7 | 1077
x2 = 0.9018 | 967 | 962.5 | 958
x2 = 0.9491 | 889.7 | 885.3 | 880.9

CCCC[n+]1cccc(C)c1.O=S(=O)([N-]S(=O)(=O)C(F)(F)F)C(F)(F)F + CC(C)O
mass density [kg/m3]
Conditions | 298.15 K | 303.15 K | 308.15 K
x2 = 0 | 1414.7 | 1410.1 | 1405.5
x2 = 0.0534 | 1405.5 | 1400.9 | 1396.4
x2 = 0.1034 | – | 1391.8 | 1387.3
x2 = 0.1577 | – | 1381.1 | 1376.6
x2 = 0.1756 | 1381.9 | 1377.4 | 1372.8
x2 = 0.3062 | 1351.2 | 1346.5 | 1341.9
x2 = 0.3957 | 1325.2 | 1320.5 | 1315.8
x2 = 0.51 | 1283.5 | 1278.8 | 1274.2
x2 = 0.6002 | 1241.5 | 1237 | 1232.2
x2 = 0.7046 | 1177.9 | 1173.2 | 1168.4
x2 = 0.8006 | – | – | 1088.3
x2 = 0.8988 | – | 974.1 | 969.5

CC(C)O + CCCC[N+]1(C)CCCC1.O=S(=O)([N-]S(=O)(=O)C(F)(F)F)C(F)(F)F
x1 = 1
Conditions | mass density [kg/m3]
298.15 K | 781.1
303.15 K | 776.8
308.15 K | 772.5

CCCO + CCCC[N+]1(C)CCCC1.O=S(=O)([N-]S(=O)(=O)C(F)(F)F)C(F)(F)F
x1 = 1
Conditions | mass density [kg/m3]
298.15 K | 800
303.15 K | 796

CCO + CCCC[N+]1(C)CCCC1.O=S(=O)([N-]S(=O)(=O)C(F)(F)F)C(F)(F)F
x1 = 1
Conditions | mass density [kg/m3]
303.15 K | 781.1
308.15 K | 776.8

CC(C)O + CCCC[n+]1cccc(C)c1.O=S(=O)([N-]S(=O)(=O)C(F)(F)F)C(F)(F)F
x1 = 1
Conditions | mass density [kg/m3]
298.15 K | 781.1
303.15 K | 776.8

CCCO + CCCC[n+]1cccc(C)c1.O=S(=O)([N-]S(=O)(=O)C(F)(F)F)C(F)(F)F
x1 = 1
Conditions | mass density [kg/m3]
298.15 K | 800
303.15 K | 796
308.15 K | 791.9

CCO + CCCC[n+]1cccc(C)c1.O=S(=O)([N-]S(=O)(=O)C(F)(F)F)C(F)(F)F
x1 = 1
Conditions | mass density [kg/m3]
298.15 K | 785.4
303.15 K | 781.1
308.15 K | 776.8

CCCC[N+]1(C)CCCC1.O=S(=O)([N-]S(=O)(=O)C(F)(F)F)C(F)(F)F + CCCO
mass density [kg/m3]
Conditions | x2 = 0 | x2 = 0.0545 | x2 = 0.0931 | x2 = 0.1903 | x2 = 0.2935 | x2 = 0.3972 | x2 = 0.5916 | x2 = 0.7837 | x2 = 0.8975 | x2 = 0.9472
298.15 K | 1394.5 | 1386 | 1379.7 | 1361.9 | – | 1311.5 | 1238.5 | 1114.5 | 988.7 | –
303.15 K | 1390.1 | – | 1375.2 | 1357.5 | 1334.8 | 1307.2 | – | 1110.1 | 984.3 | 905.7
308.15 K | 1385.7 | 1377.2 | 1370.8 | 1353.1 | 1330.4 | 1302.7 | 1229.6 | 1105.5 | 979.9 | 901.5

CCCC[n+]1cccc(C)c1.O=S(=O)([N-]S(=O)(=O)C(F)(F)F)C(F)(F)F + CCCO
mass density [kg/m3]
Conditions | 298.15 K | 303.15 K | 308.15 K
x2 = 0 | 1414.7 | 1410.1 | 1405.5
x2 = 0.0431 | – | 1403.2 | 1398.7
x2 = 0.0889 | 1399.9 | 1395.4 | 1390.8
x2 = 0.1564 | 1387.5 | – | 1378.3
x2 = 0.2913 | – | 1353.1 | 1348.5
x2 = 0.3788 | 1334.1 | 1329.5 | 1324.9
x2 = 0.5665 | 1265.1 | 1260.5 | 1255.8
x2 = 0.5901 | – | 1249.4 | 1244.7
x2 = 0.6913 | 1196.8 | 1192.1 | –
x2 = 0.8006 | 1110.3 | 1105.7 | 1101.3
x2 = 0.8947 | 1000.3 | 995.9 | –
x2 = 0.9467 | 915.7 | 911.5 | 907.2

CCCC[N+]1(C)CCCC1.O=S(=O)([N-]S(=O)(=O)C(F)(F)F)C(F)(F)F + CCO
mass density [kg/m3]
Conditions | 298.15 K | 303.15 K | 308.15 K
x2 = 0 | 1394.5 | 1390.1 | 1385.7
x2 = 0.0586 | 1387.3 | 1382.9 | 1378.5
x2 = 0.1981 | 1367.1 | 1362.6 | 1358.1
x2 = 0.2834 | 1351.7 | 1347.2 | 1342.7
x2 = 0.4449 | 1313.8 | 1309.2 | 1304.6
x2 = 0.5133 | 1292.7 | 1288.1 | 1283.5
x2 = 0.6012 | 1259.1 | – | –
x2 = 0.7078 | – | 1198.4 | 1193.7
x2 = 0.7929 | 1139.1 | 1134.4 | –
x2 = 0.8997 | 1011.8 | 1007.2 | 1002.6
x2 = 0.9492 | – | 916 | –

CCCC[n+]1cccc(C)c1.O=S(=O)([N-]S(=O)(=O)C(F)(F)F)C(F)(F)F + CCO
mass density [kg/m3]
Conditions | 298.15 K | 303.15 K | 308.15 K
x2 = 0 | – | 1410.1 | –
x2 = 0.0533 | – | – | 1398.7
x2 = 0.0924 | 1402.4 | 1397.9 | –
x2 = 0.1963 | 1386.5 | 1381.9 | 1377.2
x2 = 0.3011 | 1366.8 | 1362.2 | 1357.5
x2 = 0.3959 | 1344.9 | 1340.2 | 1335.5
x2 = 0.4982 | – | 1310.2 | 1305.5
x2 = 0.599 | – | – | 1266.8
x2 = 0.6829 | 1233 | 1228.3 | 1223.5
x2 = 0.7355 | 1198.5 | 1193.7 | –
x2 = 0.8008 | 1144.2 | 1139.4 | 1134.7
x2 = 0.8991 | 1021.8 | 1017.1 | 1012.4
x2 = 0.9436 | 938.9 | 934.3 | 929.7
